The results in this text go back to paper PMC12136788.

Some of the results follow.

The labels stand for the following.
T1: UNK ZnF1-3 (human, UniProt Q9C0B0 31-174)
T1 sequence: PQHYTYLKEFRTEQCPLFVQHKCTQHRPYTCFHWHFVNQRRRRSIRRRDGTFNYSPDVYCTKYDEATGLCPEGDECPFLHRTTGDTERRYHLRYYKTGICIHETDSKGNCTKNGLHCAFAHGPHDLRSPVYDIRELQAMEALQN

B1: chr15:99827826:99827827:+_ENSMUSG00000023025_ENSMUST00000100206|mus_mus|motif|central (ssRNA)
RNA: GGGAGUUCUACAGUCCGACGAUCAUUCAUAGCAGCAGCAUUUGUUUUGUAAGAUCCUGGUGAACUAAAGCCAUUCACAAAACGGCCAUUGGGAAAGGGAGCCAGUGGUGUUUCAAAGUAAGGUGCAGGACUUGGAGACCAAGACAACAGAGGAUUGAGCAUCA
B2: 126977228_126977348_13475_CDS_ENSMUSG00000040249_ENSMUST00000049149|mouse|control|control (ssRNA)
RNA: GGGAGUUCUACAGUCCGACGAUCCUGCUUAUUGACCACACAGGCGCCUUGGAGACAGCGACUACACUUGUUCACCUCACACCUUGGUCCCUCAAAGUAGACGGUGCAGCGACAUUGUCGGGAGCCAUCAGCAGCCAUCUGACACAACAGAGGAUUGAGCAUCA
B3: chr6:38652254:38652255:-_ENSG00000124767_ENST00000373365|hu_hu|hu_hu_hu_mus_False|1_58 (ssRNA)
RNA: GGGAGUUCUACAGUCCGACGAUCCGAGAACUUCAUAGCAGGGAAGUCAAGCUUCUGCAGGAGGGUCAGUCCAAGAACUCUAGUAUAAAAAUCCAGGGACUUCUUAGGAUCCUUAAUUCUUAGCAUCGUUUGCUGCAAUAGAAACAACAGAGGAUUGAGCAUCA
B4: chr9:59188957:59188958:-_ENSMUSG00000025235_ENSMUST00000026265|mus_hu|motif|central (ssRNA)
RNA: GGGAGUUCUACAGUCCGACGAUCGGCCACCUGCUUGAGGUUAUCAGCACUCUGAGGACUAAGAACUGCACAUGUCUGGAAGAGUUCGGGGGAUUCUUGGAUAUUUCCUUCUAGGCGAAAUAUCAAUGCUUGGACAUAGAUAGCCAACAGAGGAUUGAGCAUCA
B5: chr8:98289279:98289280:-_ENSG00000180543_ENST00000322128|hu_hu|FALSE|FALSE (ssRNA)
RNA: GGGAGUUCUACAGUCCGACGAUCUUCCAAGCUGUUUAAGUAGCUCAGUACCUCUUUCUCUUGGCUAUUCAGAAAGGAUGCUAGCUGGGGAUGGUUCUGAAAUGCUUGCCCCCAGAAGCCCGGGAUAUUUUGGAUGAGGUGGUUCAACAGAGGAUUGAGCAUCA
B6: chr13:46067487:46067488:+_ENSG00000136152_ENST00000349995|hu_hu|FALSE|FALSE (ssRNA)
RNA: GGGAGUUCUACAGUCCGACGAUCGAUCAAUGGCCUGAAGACAUCAUACAAUGACACACACAGUUUCUCCAAAAGCUCAUCUAAUUUUGAUGUUGGUUUUGUGAAAAAUUCAUUGUAAAGUUGGUGUUCAUCCUGGCAGACAUGCAACAGAGGAUUGAGCAUCA
B7: chr11:4127340:4127341:+_ENSG00000167325_ENST00000300738|hu_hu|motif|central (ssRNA)
RNA: GGGAGUUCUACAGUCCGACGAUCAGCAUAGUCAGGGUGCUUAGUAGUCAAGGUUGCAGCUGUUUCAGCAGCCAAAGUAUCGGGUUCCACUGUGGUGACCCCACUGUACAAGCCUUGGAUUACUUUCAUGGUGAUCUGAGCAGGCAACAGAGGAUUGAGCAUCA
B8: chr4:101300647:101300648:+_ENSMUSG00000028528_ENSMUST00000094953|mus_hu|FALSE|FALSE (ssRNA)
RNA: GGGAGUUCUACAGUCCGACGAUCAGUACCAUGCGAGGAUCCGGUUGGGCUGGUGGCAGCUGACUUGCUUCCCAUUCCAAAGCCUCCUGGUUUAGCAUGCCAGUCCCAACCUCCAGAAACAUCUGGCUGAAUGUUCACAGCAGGCAACAGAGGAUUGAGCAUCA
B9: chr14:62194323:62194324:+_ENSG00000100644_ENST00000337138|hu_hu|motif|central (ssRNA)
RNA: GGGAGUUCUACAGUCCGACGAUCUCUUUCAUCACAAUAAGAAAAUUUCAUAUCCAGGCUGUGUCGACUGAGGAAAGUCUUGCGGUCGGAAGGAAUUUCAAUAUUUGAUGGGUGAGGAAUGGGUUCACAAAUCAGCACCAAGCACAACAGAGGAUUGAGCAUCA
B10: chr5:72801247:72801248:+_ENSG00000145741_ENST00000335895|hu_mus|FALSE|FALSE (ssRNA)
RNA: GGGAGUUCUACAGUCCGACGAUCUUUUAUUAACCCUUUCCAAACUUUAUUCCCAGGCUUCUUCAGCUUUAUUUGCCGCAAAGAAUGAAUUAGGUAUAGCGAAAACUGAAAAGAGCUGCAGUGUCCGGGGGCUUGGGCUUAAAACAACAGAGGAUUGAGCAUCA
B11: chr16:94651144:94651145:+_ENSMUSG00000040785_ENSMUST00000117648|mus_hu|mus_mus_mus_hu_True|8_108 (ssRNA)
RNA: GGGAGUUCUACAGUCCGACGAUCAUUCUCUUGGAUCAAGUGGCGAAUAACAUAGUCCACUGCUUCAUUUAGAAAAUUUCUGCUAGAAAAACAGGUUGUAUAGUCUUCUGUGCUCAAAACUUUCCAAGAGAGCAGCUCUUUGAGCAACAGAGGAUUGAGCAUCA
B12: chr7:141441981:141441982:+_ENSG00000106028_ENST00000265304|hu_hu|FALSE|FALSE (ssRNA)
RNA: GGGAGUUCUACAGUCCGACGAUCCUCAUGUCUUACAAACUGACGAAGUACCUGUAAUACAGGUCUUCGAAACAUGGCUUCUAUUUUCUUUUCUUACAGUCUAAUCUUUAGGCUUUUCCUGACGAUCUAACCCGAGCAGCCCAGCAACAGAGGAUUGAGCAUCA
B13: chr1:23645023:23645024:-_ENSG00000125944_ENST00000302271|hu_hu|motif|central (ssRNA)
RNA: GGGAGUUCUACAGUCCGACGAUCCUUAGCCAUGACUUCUGGAUCUGGUUCUUCCACAGGGUCAGCCCAUUCAACUGUAACGGCAUUUCCCCACACUUUUACUUUUCCACUCAUCAGCCGGCGUCUGGCUUGUGCUGCUGACUUCAACAGAGGAUUGAGCAUCA
B14: chr2:78712580:78712581:+_ENSMUSG00000027011_ENSMUST00000028398|mus_hu|FALSE|FALSE (ssRNA)
RNA: GGGAGUUCUACAGUCCGACGAUCAUUAGGAGGAGGAUCAAGGGUUAUUUCAGCUAGCUCCUUCUGAAUUCUUUUAGCACUAGUGGAUAACUUAGCAGUGGUUUUGCUAGAGAGUUUGGUGUUUUUCUUCUGCUGGGUGGCAGACAACAGAGGAUUGAGCAUCA

The experiment addresses T1, UNK ZnF1-3. Description: nsRBNS (natural sequence RNA bind-n-seq); RBNS binding buffer (assumed for nsRBNS): 25 mM Tris pH 7.5, 150 mM KCl, 3 mM MgCl2, 0.01% Triton X-100, 500 ug/ml BSA, 20 U/ml SUPERase-In, 4 C; UNK is unkempt and MSI1 is Musashi-1; names of the RNAs are library labels; protein concentration not given here; high values mean tight binding.
Molecule B1 returned a binding signal of 1.56 enrichment R. The result for B2 reads 0.928 enrichment R.

With B3, the binding signal turned out to be 1.14 enrichment R. As for B4, the binding signal stood at 1.62 enrichment R. In turn, B5 registered a binding signal of 1.12 enrichment R.

For B6, the binding signal turned out to be 1.35 enrichment R.

As for B7, the binding signal is 1.19 enrichment R. The result for B8 reads 1.24 enrichment R; that for B9, 1.23 enrichment R.

Take B10: the binding signal was 1.31 enrichment R. The result for B11 reads 1.04 enrichment R; that for B12, 0.906 enrichment R; that for B13, 0.534 enrichment R. The result for B14 reads 0.984 enrichment R.
